# Reference: the supplement of paper PMC9513381
# Recombinant human monoclonal antibodies (heavy:light variable regions). ELISA EC50 on the named antigen, from 10 µg/ml down; IC50 / IC90 against spike pseudovirus on 293T-ACE2 cells, 48 h; lower = stronger. Calls: IC50 above 1,000 ng/ml = non-neutralizing; EC50 above 1,000 ng/ml = non-binder. The source prints 1000 for neutralization that was not reached; it is given as >1000 ng/ml. Only binders of the Wuhan-Hu-1 domain have neutralization values.
# B1: B2077 (protein)
# chain 1: QVQLQESGPGLVKPSETLSLTCTVSVGSISSYYWSWIRQPPGKGLEWIGYIYYSGSTNYNPSLKSRVTISVDTSKNQFSLKLSSVTAADTAVYYCARHVLVPPAALGLTPHTYFDTWGQGTLVTVSS
# chain 2: QSVLTQPPSVSGAPGQRVTISCTGSSSNIGAGCDVHWYQHLPGTAPKLLIYGNTNRPPGVPDRFSGSKSGTSASLAITGLQAEDEADYYCQSYDTSLSGEVVFGGGTKLTVL
# B2: B679 (protein)
# chain 1: EVQLVESGGGLVQPGRSLRLSCAASGFTFEDYAMHWVRQAPGKGLEWVSGISWNGGVIDYADSVKGRFIISRDNAKNSLYLQMRRLTAEDTALYYCAKDIDRGNGYDFPLDYWGQGTLVTVSS
# chain 2: QSVLTQPPSASGTPGQAVTISCSGSSSNIGSNTVNWYQQLPGTAPKLLIYNNHQRPSGVPDRFSGSKSGTSASLAISGLQSEDEANFYCAAWDDRLNGVVFGGGTKLTVL
# B3: B2070 (protein)
# chain 1: QVQLVQSGAEVKKPGSSVKVSCKASGGTFSSNVISWVRQAPGQGLEWMGAIIPIFGPANYAQKFQDRVTITADESTSTAYMELSSLRSEDTAVYYCARRSQSSSFGPRYYGMDVWGQGTTVTVSS
# chain 2: DIQMTQSPSSLSASVGDRVTITCQASEDINKYLNWYQQKPGKAPKLLIYDASNLETGVPSRFSGSGSGTDFTFTISSLQPEDIATYYCQQYDNLPRTFGQGTKLEIK
# B4: B2074 (protein)
# chain 1: EVQLLESGGGLVQPGGSLRLSCAASGFTFSNYAMNWVRQAPGKGLEWVSAIDGSVGSTYYADSVKGRFTISRDNSKNTLYLQMNSLRADDTAVYYCAKRRGYYDSIHYRPGPEYFQNWGQGTLVTVSS
# chain 2: DIQLTQSPSSLSASVGDRVTITCRASQSISRYLNWYQQKPGKAPKLLIYAASSLQSGVPSRFSGSGSGTNFTLTISSLQPEDFATYYCQQSYSTPPITFGQGTRLEIK
# B5: B675 (protein)
# chain 1: EVQLVQSGTEVKKPGESLKISCQGSGYRFTSYWIAWVRQMPGKGLEWMGIIYPGDSETRYSPSFQGQVTISVDKSISTAYLHWSSMKASDTAMYYCARSMTTNYFDLCGQG
# chain 2: QSVLTQPASVSGSPGQSITIFCTGTSSDVGGYNYVSWYQQHPGKAPKLMIYDVSNRPSGVSNRFSGSKSGNTASLTISGLQAEDEADYYCSSYTSSSTLVVFGGGTKLTVL
# B6: B686 (protein)
# chain 1: QVQLVESGGGVVQPGRSLRLSCAASGISFSTSVMHWVRQAPGKGLEWVTVISYDGVNNYYADSVKGRFTISRDNSKNTLYLQMNSLRDEDTAVYYCAKSHPIAAGTLFWNAFDIWGQGTMVTVSS
# chain 2: AIQLTQSPSSLSASVGDRVTITCRASQGISSALAWYQQKPGKAPKLLIYDASSLESGVPSRFSGSGSGTDFTLTISSLQPEDSATYYCQQFNTYLTFGGGTKVEIK
# B7: B671 (protein)
# chain 1: EVQLLESGGGLVQPGGSLTLSCAVSGFTFTNYAVAWVRQAPGKGPEWVSTIKGGGDVTWYVASVRGRFTISRDNSMNTAFLQMDSLRAEDTAIYYCARDGDYPTDRFDFWGQGTLVVVSS
# chain 2: QSVLTQPPSVSGAPGQRVTISCTGSSSNIGAGYAVHWYQQLPGTAPKLLIYSNNNRPSGVPDRFSGSKSGTSASLAITGLLAEDEADYFCQSYDSSLSGSVFGTGTKVTVL
# B8: B2109 (protein)
# chain 1: QVQLQESGPGLVRPSETLSVTCAVSGYSISSSYYWGWIRQSPGRGLEWIGSIYHSGTTYYNPSVKSRLTISVDTSTNQFSLTLRSVTAADTAMYYCASNSGQVVIGAFDIWGQGTMVTVSS
# chain 2: EIVLTQSPATLSLSPGERATLSCRASQSLSTYLAWYQQKPGLAPRLLIYDTSTRATGIPDRFSGSGSETDFTLTISRLDPEDFAVYYCQQYGSSPRTFGQGTKLEIK
# Target: SARS-CoV-2 Delta (B.1.617.2) spike RBD
# Assay: ELISA binding EC50; higher = weaker binding; ELISA of recombinant human antibody on coated antigen, from 10 µg/ml in fourfold dilutions; four-parameter fit.
row,Binder,ELISA binding EC50 [µg/mL]
1,B1,> 1
2,B2,> 1
3,B3,> 1
4,B4,> 1
5,B5,> 1
6,B6,> 1
7,B7,> 1
8,B8,> 1

# Target: SARS-CoV-2 Omicron BA.1 spike protein
# Assay: as above
row,Binder,ELISA binding EC50 [µg/mL]
1,B1,> 1
2,B2,> 1
3,B3,> 1
4,B4,> 1
5,B5,> 1
6,B6,> 1
7,B7,> 1
8,B8,> 1

# Target: SARS-CoV-2 Wuhan-Hu-1 spike receptor-binding domain
# Assay: as above
row,Binder,ELISA binding EC50 [µg/mL]
1,B1,> 1
2,B2,> 1
3,B3,> 1
4,B4,> 1
5,B5,> 1
6,B6,> 1
7,B7,> 1
8,B8,> 1
